# Over roughly 81,000 sequences, “one-hybrid fitness for binding parS DNA” has its median near -0.17; the highest 2% begin near 0.51. The list shows a part of the results.
# B1: Caulobacter ParB omega fusion; a variant is named by its letters at X, in order, B8GW30 (parent)
# chain: MESVVVGEPGMSEGRRGLGRGLSALLGEVDAAPAQAPGEQLGGSREAPIEILQRNPDQPRRTFREEDLEDLSNSIREKGVLQPILVRPSPDTAGEYQIVAGERAWRAAQRAGLKTVPIMVRELDDLAVLEIGIIENVQRADLNVLEEALSYKVLMEKFERTQENIAQTIGKSXSHVANXMRLLXLPDEVQSYLVSGELTAXHARAIAAAADPVALAKQIIEGGLSVRETEALARKAPNLSAGKSKGGRPPRVKDTDTQALESDLSSVLGLDVSIDHRGSTGTLTITYATLEQLDDLCNRLTRGI
# Variants of: B1
# Test: one-hybrid fitness for binding parS DNA (scaled: cognate 1, non-cognate 0); higher = stronger binding
# Conditions: with parS DNA site
# In short: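 Pre- and post-selection plasmids were Illumina-sequenced, three replicate libraries were pooled, and any variant with under 10 reads was removed. The libraries were Caulobacter ParB with four specificity codons randomised, selected in E. coli USO through a HIS3 reporter whose site is 19 bp from the promoter. Cells grew 48 hours at 37°C on M9 without histidine, with 0.1 mM IPTG and 5 mM 3-AT. Fitness is the log change in variant-to-wild-type read ratio, rescaled against cognate and non-cognate.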
row,Variant,one-hybrid fitness for binding parS DNA
1,PNYS,≤ 0.2
2,DHWC,≤ 0.2
3,MWPR,≤ 0.2
4,NRMS,≤ 0.2
5,MYPK,≤ 0.2
6,TTGE,≤ 0.2
7,DTRV,≤ 0.2
8,IKMS,≤ 0.2
9,STVG,≤ 0.2
10,LTQI,≤ 0.2
11,EMKP,≤ 0.2
12,VTHC,≤ 0.2
13,LRNR,≤ 0.2
14,EVAC,≤ 0.2
15,HSIR,≤ 0.2
16,GCNT,≤ 0.2
17,PRME,≤ 0.2
18,DSEC,≤ 0.2
19,YLFE,≤ 0.2
20,GRDS,≤ 0.2
21,PHIC,≤ 0.2
22,MHRR,≤ 0.2
23,GVWK,≤ 0.2
24,DAFN,≤ 0.2

row,Variant,one-hybrid fitness for binding parS DNA
1,MFKR,≤ 0.2
2,TDST,≤ 0.2
3,ITLR,≤ 0.2
4,HTCT,≤ 0.2
5,LGNC,≤ 0.2
6,DYSG,≤ 0.2
7,YKPV,≤ 0.2
8,QRLW,≤ 0.2
9,ASLY,≤ 0.2
10,SCAA,≤ 0.2
11,NDER,≤ 0.2
12,RYFD,≤ 0.2
13,PYSF,≤ 0.2
14,EGMD,≤ 0.2
15,QCMA,≤ 0.2
16,TIEM,≤ 0.2
17,YRCR,≤ 0.2
18,RIIP,≤ 0.2
19,LMSC,≤ 0.2
20,EVDG,≤ 0.2
21,QCGD,≤ 0.2
22,HREC,≤ 0.2
23,RWLH,≤ 0.2
24,YRSN,≤ 0.2

row,Variant,one-hybrid fitness for binding parS DNA
1,ITKT,≤ 0.2
2,KTGY,≤ 0.2
3,QWQC,≤ 0.2
4,MYAR,≤ 0.2
5,GLCS,≤ 0.2
6,LVRW,≤ 0.2
7,RNRN,0.371
8,STTE,≤ 0.2
9,AHPT,≤ 0.2
10,PCDL,≤ 0.2
11,ITRW,≤ 0.2
12,TLTM,≤ 0.2
13,RWHR,≤ 0.2
14,NLPS,≤ 0.2
15,LGTS,≤ 0.2
16,SYGI,≤ 0.2
17,VYSV,≤ 0.2
18,MTTL,≤ 0.2
19,LHTY,≤ 0.2
20,AQHC,≤ 0.2
21,QHHG,≤ 0.2
22,SERK,≤ 0.2
23,FCDR,≤ 0.2
24,FMQS,≤ 0.2

row,Variant,one-hybrid fitness for binding parS DNA
1,VRGI,≤ 0.2
2,PPHA,≤ 0.2
3,VGQG,≤ 0.2
4,QNFY,≤ 0.2
5,PNQC,≤ 0.2
6,FPPV,≤ 0.2
7,TPFS,≤ 0.2
8,NLMS,≤ 0.2
9,NAVI,≤ 0.2
10,THEC,≤ 0.2
11,AWVG,≤ 0.2
12,KPTR,≤ 0.2
13,QKND,≤ 0.2
14,SRPD,≤ 0.2
15,FLDD,≤ 0.2
16,LSKI,≤ 0.2
17,TTHR,≤ 0.2
18,MAPM,≤ 0.2
19,SQRI,≤ 0.2
20,AHWS,≤ 0.2
21,LYLN,≤ 0.2
22,RPPW,≤ 0.2
23,IMPI,≤ 0.2
24,IIEY,≤ 0.2

row,Variant,one-hybrid fitness for binding parS DNA
1,WSDR,≤ 0.2
2,SLGF,≤ 0.2
3,NPCL,≤ 0.2
4,YAKC,≤ 0.2
5,QSLV,≤ 0.2
6,ISGW,≤ 0.2
7,RACP,≤ 0.2
8,QEKT,≤ 0.2
9,KPSW,≤ 0.2
10,SYTL,≤ 0.2
11,RPFV,≤ 0.2
12,ANLR,≤ 0.2
13,EAFT,≤ 0.2
14,LDIR,≤ 0.2
15,QAHR,≤ 0.2
16,FRAN,≤ 0.2
17,EGRR,≤ 0.2
18,PSNI,≤ 0.2
19,GEDK,≤ 0.2
20,PQRM,≤ 0.2
21,TMMC,≤ 0.2
22,MDVC,≤ 0.2
23,RMTF,0.268
24,KHEC,≤ 0.2

row,Variant,one-hybrid fitness for binding parS DNA
1,QAWR,≤ 0.2
2,CAGR,≤ 0.2
3,SYIK,≤ 0.2
4,RGDG,0.496
5,NYYW,≤ 0.2
6,AAYT,≤ 0.2
7,AVMD,≤ 0.2
8,SKGD,≤ 0.2
9,LWNE,≤ 0.2
10,RCQM,0.303
11,KLLS,≤ 0.2
12,QAQW,≤ 0.2
13,KVKG,≤ 0.2
14,LSVT,≤ 0.2
15,YTAM,≤ 0.2
16,RKHY,0.375
17,MAVC,≤ 0.2
18,EQLF,≤ 0.2
19,PSKP,≤ 0.2
20,MSRW,≤ 0.2
21,PDSN,≤ 0.2
22,AGLM,≤ 0.2
23,ADCV,≤ 0.2
24,KWTC,≤ 0.2

row,Variant,one-hybrid fitness for binding parS DNA
1,VDTS,≤ 0.2
2,PSRV,≤ 0.2
3,ILLR,≤ 0.2
4,IPWS,≤ 0.2
5,MNKC,≤ 0.2
6,ISQR,≤ 0.2
7,ELTQ,≤ 0.2
8,TCEC,≤ 0.2
9,RPLE,≤ 0.2
10,LKPR,≤ 0.2
11,EGPL,≤ 0.2
12,CAKR,≤ 0.2
13,LTRM,≤ 0.2
14,RPDN,≤ 0.2
15,LSIF,≤ 0.2
16,ETRI,≤ 0.2
17,PEPT,≤ 0.2
18,RVHK,≤ 0.2
19,YATT,≤ 0.2
20,DLGS,≤ 0.2
21,EAKW,≤ 0.2
22,HLFG,≤ 0.2
23,TSHD,≤ 0.2
24,LRLA,≤ 0.2

row,Variant,one-hybrid fitness for binding parS DNA
1,RGPH,≤ 0.2
2,EAHT,≤ 0.2
3,VLPK,≤ 0.2
4,LVNC,≤ 0.2
5,WWAK,≤ 0.2
6,ATGR,≤ 0.2
7,NDLV,≤ 0.2
8,LIKH,≤ 0.2
9,SCYH,≤ 0.2
10,QITI,≤ 0.2
11,ETEC,≤ 0.2
12,QWSW,≤ 0.2
13,ALNP,≤ 0.2
14,DLYA,≤ 0.2
15,YPLH,0.22
16,PFRV,≤ 0.2
17,PMNT,≤ 0.2
18,TRNL,≤ 0.2
19,YCMF,≤ 0.2
20,SIIA,≤ 0.2
21,VRDR,≤ 0.2
22,YQRR,≤ 0.2
23,GPRI,≤ 0.2
24,RKGM,0.262

row,Variant,one-hybrid fitness for binding parS DNA
1,VSVS,≤ 0.2
2,LSLI,≤ 0.2
3,QHRC,≤ 0.2
4,HNTL,≤ 0.2
5,HLNT,≤ 0.2
6,WWHS,≤ 0.2
7,PTFH,≤ 0.2
8,VMRA,≤ 0.2
9,NRSF,≤ 0.2
10,KTML,≤ 0.2
11,YCNR,≤ 0.2
12,LIVS,≤ 0.2
13,SQRY,≤ 0.2
14,MKRV,≤ 0.2
15,WEPT,≤ 0.2
16,TGHP,≤ 0.2
17,HLMR,≤ 0.2
18,ENGS,≤ 0.2
19,QKRH,≤ 0.2
20,HFPF,≤ 0.2
21,PGPQ,≤ 0.2
22,AMVT,≤ 0.2
23,PHCN,≤ 0.2
24,HASC,≤ 0.2

row,Variant,one-hybrid fitness for binding parS DNA
1,CETL,≤ 0.2
2,SVNL,≤ 0.2
3,YFQV,≤ 0.2
4,QWMA,≤ 0.2
5,AFMG,≤ 0.2
6,FERS,≤ 0.2
7,QVKG,≤ 0.2
8,QLSD,≤ 0.2
9,LPLM,≤ 0.2
10,DRSV,≤ 0.2
11,WIDE,≤ 0.2
12,RRHR,≤ 0.2
13,CMAT,≤ 0.2
14,ISAW,≤ 0.2
15,LGCI,≤ 0.2
16,RHEV,≤ 0.2
17,PPSR,≤ 0.2
18,YMNG,≤ 0.2
19,TKCD,≤ 0.2
20,PHPR,≤ 0.2
21,ELAE,≤ 0.2
22,YPNG,≤ 0.2
23,DASE,≤ 0.2
24,QVHH,≤ 0.2

row,Variant,one-hybrid fitness for binding parS DNA
1,ETTI,≤ 0.2
2,GAPW,≤ 0.2
3,TCWG,≤ 0.2
4,KSLE,≤ 0.2
5,IKEY,≤ 0.2
6,WHYT,≤ 0.2
7,QKLQ,≤ 0.2
8,DASA,≤ 0.2
9,REHD,≤ 0.2
10,RMDA,0.572
11,PSGP,≤ 0.2
12,CFRM,≤ 0.2
13,ASGY,≤ 0.2
14,VTES,≤ 0.2
15,VFFC,≤ 0.2
16,QKNC,≤ 0.2
17,SKKL,≤ 0.2
18,PSRT,≤ 0.2
19,ETVV,≤ 0.2
20,ARIA,≤ 0.2
21,TKTV,≤ 0.2
22,RFPY,≤ 0.2
23,PVRS,≤ 0.2
24,AQPC,≤ 0.2

row,Variant,one-hybrid fitness for binding parS DNA
1,GCYG,≤ 0.2
2,VPFV,≤ 0.2
3,ANRG,≤ 0.2
4,DRSN,≤ 0.2
5,TFAC,≤ 0.2
6,RKCG,0.971
7,LMFW,≤ 0.2
8,APSG,≤ 0.2
9,INIC,≤ 0.2
10,LYHA,≤ 0.2
11,DDFR,≤ 0.2
12,WVVM,≤ 0.2
13,RGYS,0.586
14,WGCV,≤ 0.2
15,PSGR,≤ 0.2
16,TVME,≤ 0.2
17,RNCL,≤ 0.2
18,SNDC,≤ 0.2
19,RNYR,≤ 0.2
20,RMAD,0.207
21,SSGD,≤ 0.2
22,RSNF,0.224
23,VANT,≤ 0.2
24,NLHI,≤ 0.2

row,Variant,one-hybrid fitness for binding parS DNA
1,WKLG,≤ 0.2
2,CIVT,≤ 0.2
3,FVTG,≤ 0.2
4,HPAS,≤ 0.2
5,MTET,≤ 0.2
6,PHSN,≤ 0.2
7,RWFV,≤ 0.2
8,QWGC,≤ 0.2
9,MNHC,≤ 0.2
10,FIWV,≤ 0.2
11,PAIK,≤ 0.2
12,WVPS,≤ 0.2
13,RISK,≤ 0.2
14,ICDG,≤ 0.2
15,LQAE,≤ 0.2
16,LSRN,≤ 0.2
17,HDAW,≤ 0.2
18,DQTC,≤ 0.2
